According to the antibiotic and cytotoxicity screens of Wong et al. (2023):
Some of the results follow.

Experiments:
[1] = tested on: HSkMC (human skeletal muscle cells); experiment: cytotoxicity call (relative viability < 0.9); conditions: 10 µM
[2] = tested on: HepG2; experiment: cytotoxicity call (relative viability < 0.9); conditions: 10 µM
[3] = tested on: S. aureus RN4220; experiment: growth inhibition call (relative growth <= 0.2); conditions: 50 µM

SMILES | cytotoxicity call [1] | cytotoxicity call [2] | growth inhibition call [3]
C[C@H](CO)N1C[C@H](C)[C@H](CN(C)S(=O)(=O)c2ccc(Cl)cc2)OCCCC[C@H](C)Oc2ccc(NC(=O)Nc3ccccc3)cc2C1=O | inactive | inactive | inactive
C[C@@H]1CN([C@@H](C)CO)C(=O)c2cccc(NC(=O)Nc3ccc4c(c3)OCO4)c2O[C@@H]1CN(C)S(C)(=O)=O | inactive | inactive | inactive
COc1ccccc1S(=O)(=O)N[C@H]1C=C[C@@H](CC(=O)N2CCOCC2)O[C@@H]1CO | inactive | inactive | inactive
N#C/C(=C\c1ccc(O)c(O)c1)C(N)=O | inactive | active | inactive
CC(C)NC(=O)Nc1ccc2c(c1)C(=O)N([C@@H](C)CO)C[C@@H](C)[C@@H](CN(C)CC1CCCCC1)OCCCC[C@@H](C)O2 | inactive | inactive | inactive
Cc1ccc(C(N)=S)c(=O)[nH]1 | inactive | inactive | inactive
COc1ccc(S(=O)(=O)Nc2ccc3c(c2)[C@@H]2C[C@H](CC(=O)NCC4CC4)O[C@H](CO)[C@@H]2O3)cc1 | inactive | inactive | inactive
COc1ccc(NC(=O)N2C[C@@H](O)COC[C@@H]3O[C@@H](CC(=O)NC4Cc5ccccc5C4)CC[C@H]32)cc1 | inactive | inactive | inactive
C[C@@H]1CN([C@H](C)CO)C(=O)Cc2cc(NC(=O)Nc3cccc4ccccc34)ccc2O[C@H]1CN(C)CC1CCCCC1 | inactive | inactive | inactive
C[C@@H]1CN([C@@H](C)CO)C(=O)c2cccc(NS(=O)(=O)c3ccc(Cl)cc3)c2O[C@@H]1CN(C)Cc1ccc(-c2ccccc2)cc1 | active | active | inactive
CC(C)C#Cc1ccc2c(c1)O[C@@H](CN(C)C(=O)c1cccc(F)c1)[C@H](C)CN([C@@H](C)CO)S2(=O)=O | inactive | inactive | inactive
